This passage reports binding results from paper PMC7865452.

Protein sequences, listed by entry. Tags and fused reporters are not part of them.
UniProt O95292: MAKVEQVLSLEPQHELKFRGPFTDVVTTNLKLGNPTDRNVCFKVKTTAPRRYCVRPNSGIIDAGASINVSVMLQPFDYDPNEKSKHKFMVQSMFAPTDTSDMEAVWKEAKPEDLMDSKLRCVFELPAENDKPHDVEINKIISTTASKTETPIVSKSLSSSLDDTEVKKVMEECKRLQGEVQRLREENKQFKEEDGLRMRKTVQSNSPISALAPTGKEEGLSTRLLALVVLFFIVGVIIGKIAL
UniProt O75340: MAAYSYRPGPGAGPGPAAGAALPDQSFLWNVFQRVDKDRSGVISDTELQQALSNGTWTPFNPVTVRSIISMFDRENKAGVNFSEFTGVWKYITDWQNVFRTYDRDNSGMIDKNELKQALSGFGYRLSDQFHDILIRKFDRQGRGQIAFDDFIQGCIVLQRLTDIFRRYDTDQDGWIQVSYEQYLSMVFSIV
UniProt Q8WUM4: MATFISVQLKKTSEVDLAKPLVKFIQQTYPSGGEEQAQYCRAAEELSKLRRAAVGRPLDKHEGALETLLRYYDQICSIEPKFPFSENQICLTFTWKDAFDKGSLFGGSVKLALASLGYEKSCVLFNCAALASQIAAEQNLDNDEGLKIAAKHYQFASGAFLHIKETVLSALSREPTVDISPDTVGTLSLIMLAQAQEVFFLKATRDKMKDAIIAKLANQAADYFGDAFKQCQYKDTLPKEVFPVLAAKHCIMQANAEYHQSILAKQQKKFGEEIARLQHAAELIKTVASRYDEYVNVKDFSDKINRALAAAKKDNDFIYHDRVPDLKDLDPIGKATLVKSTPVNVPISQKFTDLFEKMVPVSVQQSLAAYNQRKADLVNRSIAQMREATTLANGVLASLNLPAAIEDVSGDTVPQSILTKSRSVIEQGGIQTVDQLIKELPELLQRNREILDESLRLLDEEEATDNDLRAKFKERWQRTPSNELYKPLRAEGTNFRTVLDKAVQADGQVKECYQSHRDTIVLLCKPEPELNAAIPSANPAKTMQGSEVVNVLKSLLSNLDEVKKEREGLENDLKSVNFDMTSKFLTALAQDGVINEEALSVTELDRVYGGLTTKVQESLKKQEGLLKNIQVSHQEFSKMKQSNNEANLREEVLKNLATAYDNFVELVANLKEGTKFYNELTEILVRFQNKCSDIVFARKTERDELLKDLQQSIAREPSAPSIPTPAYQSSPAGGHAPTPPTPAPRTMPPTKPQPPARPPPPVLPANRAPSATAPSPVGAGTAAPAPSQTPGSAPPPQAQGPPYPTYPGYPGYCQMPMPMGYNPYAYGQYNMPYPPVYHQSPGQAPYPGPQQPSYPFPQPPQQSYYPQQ
UniProt P50995: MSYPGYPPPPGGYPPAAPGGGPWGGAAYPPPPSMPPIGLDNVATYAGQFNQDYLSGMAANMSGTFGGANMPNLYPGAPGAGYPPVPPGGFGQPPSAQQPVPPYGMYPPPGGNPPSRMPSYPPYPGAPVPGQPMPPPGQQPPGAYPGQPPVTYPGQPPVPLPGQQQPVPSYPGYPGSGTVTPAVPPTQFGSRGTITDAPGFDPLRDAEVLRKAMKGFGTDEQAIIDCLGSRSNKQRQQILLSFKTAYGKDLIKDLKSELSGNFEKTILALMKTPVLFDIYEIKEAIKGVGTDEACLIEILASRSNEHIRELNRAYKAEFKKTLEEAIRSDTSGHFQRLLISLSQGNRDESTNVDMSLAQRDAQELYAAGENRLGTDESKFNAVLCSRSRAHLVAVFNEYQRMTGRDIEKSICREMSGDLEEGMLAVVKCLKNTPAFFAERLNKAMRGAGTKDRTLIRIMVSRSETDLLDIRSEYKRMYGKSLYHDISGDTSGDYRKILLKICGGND
UniProt Q99816: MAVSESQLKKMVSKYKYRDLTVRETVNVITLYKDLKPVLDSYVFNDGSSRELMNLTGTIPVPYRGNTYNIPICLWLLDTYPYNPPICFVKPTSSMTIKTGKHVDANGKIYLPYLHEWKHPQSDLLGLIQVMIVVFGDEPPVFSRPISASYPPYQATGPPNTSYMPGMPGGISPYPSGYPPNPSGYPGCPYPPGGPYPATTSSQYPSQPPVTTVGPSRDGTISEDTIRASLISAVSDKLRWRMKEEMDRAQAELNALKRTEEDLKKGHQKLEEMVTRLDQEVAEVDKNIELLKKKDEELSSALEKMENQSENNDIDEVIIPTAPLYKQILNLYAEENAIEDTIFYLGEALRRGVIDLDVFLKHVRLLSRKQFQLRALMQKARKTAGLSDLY
UniProt Q8NDC0: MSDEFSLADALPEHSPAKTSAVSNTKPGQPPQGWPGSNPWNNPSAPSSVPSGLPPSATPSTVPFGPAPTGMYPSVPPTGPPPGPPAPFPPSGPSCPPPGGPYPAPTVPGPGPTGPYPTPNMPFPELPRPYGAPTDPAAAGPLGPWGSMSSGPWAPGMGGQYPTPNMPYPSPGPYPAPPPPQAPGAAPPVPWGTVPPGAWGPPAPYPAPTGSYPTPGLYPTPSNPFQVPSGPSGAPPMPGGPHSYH

Where a chain is given by its changes, count along the chain named. No constants are given. Whether binding was seen depends on the method and setting. Binding seen in cells or lysates may run through a third protein. Some entries that bind do so weakly or less than the wild type. For some of these results: Tags and fused reporters may be left off the sequences shown.

Experiment [1] addresses T1, GFP-fused CDIP1 (cell death-inducing p53 target protein 1) (human) (UniProt Q9H305).
T1 sequence: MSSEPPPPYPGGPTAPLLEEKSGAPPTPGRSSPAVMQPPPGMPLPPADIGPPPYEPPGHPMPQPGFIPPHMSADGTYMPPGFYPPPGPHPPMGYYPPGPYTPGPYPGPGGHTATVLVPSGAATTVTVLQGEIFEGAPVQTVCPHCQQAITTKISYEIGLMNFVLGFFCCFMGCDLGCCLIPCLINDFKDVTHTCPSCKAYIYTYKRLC
The experiment in a line: co-IP; ALG-2 KO HEK293 cells transfected with GFP-CDIP1, ALG-2 and Myc-tagged ESCRT-I subunits; GFP nanobody; 1 uM CaCl2; Western blot with antibodies against GFP, ALG-2 and Myc tag.

Experiment [2] has as its target T2, CDIP1 induced with doxycycline in MCF-7 Tet-On CDIP1 cells (human) (UniProt Q9H305).
T2 sequence: T1 sequence
Kind of experiment: co-IP; MCF-7 Tet-On CDIP1 cells treated with DOX (100 ng/mL, 24 h); HKM buffer, 1% CHAPS; rabbit polyclonal antibody against CDIP1, Protein G magnetic beads; Western blot (Figure 7A; EGTA or CaCl2 not told for this panel). On the technique in general: A western blot detects proteins with antibodies after separation by electrophoresis.

Experiment [3] has as its target T1, GFP-fused CDIP1 (cell death-inducing p53 target protein 1) (human). The experiment in a line: co-IP; cleared lysate of transfected HEK293 (HKM buffer, 0.2% Triton X-100); GST-fused GFP nanobody on glutathione beads; 10 uM CaCl2; overnight, 4 C; Western blot.
For experiment [4], the target named is VAPB, endogenous in HEK293 cells treated with BFA (human (endogenous in HEK293)) (UniProt O95292). The experiment in a line: co-IP; HEK293 treated with BFA (9 h); HKM buffer, 1% CHAPS; rabbit polyclonal antibody against VAPB, Protein G magnetic beads; 5 mM EGTA; Western blot.
Experiment [5] shares this target. Kind of experiment: co-IP; HEK293 treated with BFA (9 h); HKM buffer, 1% CHAPS; rabbit polyclonal antibody against VAPB, Protein G magnetic beads; 10 uM CaCl2; Western blot.
For experiment [6], the target named is T1, GFP-fused CDIP1 (cell death-inducing p53 target protein 1) (human). Kind of experiment: co-IP; cleared lysate of transfected HEK293 (HKM buffer, 0.2% Triton X-100); GST-fused GFP nanobody on glutathione beads; 5 mM EGTA; overnight, 4 C; Western blot.
Experiment [7] addresses T3, GFP-CDIP1 Mut2 (deletion of residues 186 to 191) (human) (UniProt Q9H305).
T3 sequence: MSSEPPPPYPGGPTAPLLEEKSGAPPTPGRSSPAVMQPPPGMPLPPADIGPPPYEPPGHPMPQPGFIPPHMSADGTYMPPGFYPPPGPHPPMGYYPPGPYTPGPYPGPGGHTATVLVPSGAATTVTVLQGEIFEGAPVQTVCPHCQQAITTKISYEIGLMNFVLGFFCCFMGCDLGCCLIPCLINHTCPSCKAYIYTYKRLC
The experiment in a line: co-IP; cleared lysate of transfected HEK293 (HKM buffer, 0.2% Triton X-100); GST-fused GFP nanobody on glutathione beads; 10 uM CaCl2; overnight, 4 C; Western blot.

The target of experiment [8] is T4, GFP-CDIP1 Mut3 (F187A) (human) (UniProt Q9H305).
T4 sequence: T1 sequence with F187A
Described as above.

For experiment [9], the target named is T5, GFP-CDIP1 Mut4 (D189A) (human) (UniProt Q9H305).
T5 sequence: T1 sequence with D189A
The experiment is described as above.

The target of experiment [10] is T6, GFP-CDIP1 Mut5 (F187A/D189A) (human) (UniProt Q9H305).
T6 sequence: T1 sequence with F187A, D189A
The experiment is described as above.

For experiment [11], the target named is T7, GFP-CDIP1 Mut1 (deletion of residues 62 to 66) (human) (UniProt Q9H305).
T7 sequence: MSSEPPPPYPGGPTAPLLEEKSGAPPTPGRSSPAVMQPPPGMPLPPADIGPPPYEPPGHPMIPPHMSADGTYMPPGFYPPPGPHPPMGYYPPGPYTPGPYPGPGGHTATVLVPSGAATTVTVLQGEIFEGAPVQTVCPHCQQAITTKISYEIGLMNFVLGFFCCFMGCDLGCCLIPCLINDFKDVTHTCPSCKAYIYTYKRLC
Kind of experiment: co-IP; cleared lysate of transfected HEK293 (HKM buffer, 0.2% Triton X-100); GST-fused GFP nanobody on glutathione beads; 100 uM CaCl2; overnight, 4 C; Western blot.

Experiment [12] concerns the target T1, GFP-fused CDIP1 (cell death-inducing p53 target protein 1) (human). The description is as above.
Experiment [13] shares this target. Kind of experiment: co-IP; ALG-2 KO HEK293 cells transfected with GFP-CDIP1, ALG-2 and Myc-tagged ESCRT-I subunits; GFP nanobody; 5 mM EGTA; Western blot with antibodies against GFP, ALG-2 and Myc tag.
Experiment [14] has the same target. The experiment in a line: co-IP; ALG-2 KO HEK293 cells co-expressing the GFP fusion and ALG-2; GFP nanobody; 10 uM CaCl2; Western blot.
The target is the same in experiment [15]. Kind of experiment: co-IP; ALG-2 KO HEK293 cells expressing the GFP fusion without ALG-2; GFP nanobody; 5 mM EGTA or 10 uM CaCl2; Western blot.
Experiment [16] has as its target T2, CDIP1 induced with doxycycline in MCF-7 Tet-On CDIP1 cells (human). Kind of experiment: co-IP; MCF-7 Tet-On CDIP1 cells cultured with DOX; antibody against CDIP1; without addition or with 5 mM EGTA or 10 uM CaCl2; Western blot (Figure 7D).

For “ALG-2 expressed from pCDNA3/ALG-2^WT RNAiR in ALG-2 KO HEK293 cells (from UniProt O75340 1-191)”, the binding result in experiment [1] is given as “binds”.

For “ALG-2, endogenous in MCF-7 Tet-On CDIP1 cells (from UniProt O75340 1-191)”, the binding entry in experiment [2] is recorded as “binds”.

“ALG-2-interacting protein X (ALIX), endogenous in HEK293 cells (from UniProt Q8WUM4 1-868)”: in experiment [3], the binding result is “no binding”.

For the substance “Annexin A11 (ANXA11), endogenous in HEK293 cells (from UniProt P50995 1-505)”, the binding result in [3] was “no binding”.

Turning to “Apoptosis-linked gene 2 (ALG-2), endogenous in HEK293 cells (from UniProt O75340 1-191)”, the binding entry is “no binding (condition: with 5 mM EGTA)” in experiment [4]; “binds” in experiment [5]; “no binding (condition: with 5 mM EGTA)” in [6]; “binds” in experiment [7]; “binds” in experiment [8]; “binds” in experiment [9]. The binding result in experiment [10], in experiment [3], in experiment [11] and in experiment [12] was “binds” each time.

In the case of “ESCRT-I isocomplex 37B/12B (Myc-TSG101, Myc-VPS28, Myc-VPS37B, Myc-MVB12B) (from UniProt Q99816 1-390; Q9UK41 1-221; Q9H9H4 1-285; Q9H7P6 1-319)”, the binding result in experiment [1] is “binds”.

On to “ESCRT-I isocomplex 37B/UBAP1 (Myc-TSG101, Myc-VPS28, Myc-VPS37B, Myc-UBAP1) (from UniProt Q99816 1-390; Q9UK41 1-221; Q9H9H4 1-285; Q9NZ09-1 1-502)”, for which the binding result in [1] was “binds”.

Consider “ESCRT-I isocomplex 37C/12B (Myc-TSG101, Myc-VPS28, Myc-VPS37C, Myc-MVB12B) (from UniProt Q99816 1-390; Q9UK41 1-221; A5D8V6 1-355; Q9H7P6 1-319)”, for which the binding entry in [1] is given as “binds”.

As to “ESCRT-I isocomplex 37D/12B (Myc-TSG101, Myc-VPS28, Myc-VPS37D, Myc-MVB12B) (from UniProt Q99816 1-390; Q9UK41 1-221; Q86XT2 1-251; Q9H7P6 1-319)”, the binding result in [13] and in experiment [1] was “binds weakly” each time.

With “ESCRT-I isocomplex 37D/UBAP1 (Myc-TSG101, Myc-VPS28, Myc-VPS37D, Myc-UBAP1) (from UniProt Q99816 1-390; Q9UK41 1-221; Q86XT2 1-251; Q9NZ09-1 1-502)”, the binding result in experiment [13] and in [1] was “binds” throughout.

In the case of “MAPK1-interacting and spindle-stabilizing-like (MISSL), endogenous in HEK293 cells (from UniProt Q8NDC0 1-245)”, the binding result in [3] is recorded as “no binding”.

As to Myc-MVB12A (from UniProt Q96EY5 1-273), the binding result in experiment [13] and in experiment [1] was “no binding” throughout.

Consider “Myc-tagged VAPB (from UniProt O95292 1-243)”, for which the binding entry is given as “no binding” in experiment [7]; “binds” in experiment [8]; “no binding” in experiment [9]; “no binding” in experiment [10]; “binds” in [3].

For the substance “TSG101, endogenous in MCF-7 Tet-On CDIP1 cells (from UniProt Q99816 1-390)”, in experiment [2], the binding result is reported as “binds”.

As for “Tumor susceptibility gene 101 (TSG101), endogenous in HEK293 cells (from UniProt Q99816 1-390)”, the binding entry is “binds” in experiment [14]; “binds weakly” in experiment [15]; “binds weakly” in [6]; “binds” in [7]; “binds” in experiment [8]; “binds” in experiment [9]. For the same substance, the binding result in experiment [10], in experiment [3] and in [12] was “binds” in each case.

On to “Vesicle-associated membrane protein-associated protein B (VAPB), endogenous in MCF-7 Tet-On CDIP1 cells (from UniProt O95292 1-243)”, for which, in experiment [16], the binding result was “binds”.
